Out of some 310,000 compounds screened, about 2,200 (0.71%) showed an effect of 50% or more. Effects have a minus sign here. The list shows a part of the results.
molecular target: human ether-à-go-go-related gene (hERG) potassium channel (human, UniProt Q12809); experiment: primary screen, population patch clamp on CHO cells stably expressing hERG
Sequence (Q12809 whole entry, looked up): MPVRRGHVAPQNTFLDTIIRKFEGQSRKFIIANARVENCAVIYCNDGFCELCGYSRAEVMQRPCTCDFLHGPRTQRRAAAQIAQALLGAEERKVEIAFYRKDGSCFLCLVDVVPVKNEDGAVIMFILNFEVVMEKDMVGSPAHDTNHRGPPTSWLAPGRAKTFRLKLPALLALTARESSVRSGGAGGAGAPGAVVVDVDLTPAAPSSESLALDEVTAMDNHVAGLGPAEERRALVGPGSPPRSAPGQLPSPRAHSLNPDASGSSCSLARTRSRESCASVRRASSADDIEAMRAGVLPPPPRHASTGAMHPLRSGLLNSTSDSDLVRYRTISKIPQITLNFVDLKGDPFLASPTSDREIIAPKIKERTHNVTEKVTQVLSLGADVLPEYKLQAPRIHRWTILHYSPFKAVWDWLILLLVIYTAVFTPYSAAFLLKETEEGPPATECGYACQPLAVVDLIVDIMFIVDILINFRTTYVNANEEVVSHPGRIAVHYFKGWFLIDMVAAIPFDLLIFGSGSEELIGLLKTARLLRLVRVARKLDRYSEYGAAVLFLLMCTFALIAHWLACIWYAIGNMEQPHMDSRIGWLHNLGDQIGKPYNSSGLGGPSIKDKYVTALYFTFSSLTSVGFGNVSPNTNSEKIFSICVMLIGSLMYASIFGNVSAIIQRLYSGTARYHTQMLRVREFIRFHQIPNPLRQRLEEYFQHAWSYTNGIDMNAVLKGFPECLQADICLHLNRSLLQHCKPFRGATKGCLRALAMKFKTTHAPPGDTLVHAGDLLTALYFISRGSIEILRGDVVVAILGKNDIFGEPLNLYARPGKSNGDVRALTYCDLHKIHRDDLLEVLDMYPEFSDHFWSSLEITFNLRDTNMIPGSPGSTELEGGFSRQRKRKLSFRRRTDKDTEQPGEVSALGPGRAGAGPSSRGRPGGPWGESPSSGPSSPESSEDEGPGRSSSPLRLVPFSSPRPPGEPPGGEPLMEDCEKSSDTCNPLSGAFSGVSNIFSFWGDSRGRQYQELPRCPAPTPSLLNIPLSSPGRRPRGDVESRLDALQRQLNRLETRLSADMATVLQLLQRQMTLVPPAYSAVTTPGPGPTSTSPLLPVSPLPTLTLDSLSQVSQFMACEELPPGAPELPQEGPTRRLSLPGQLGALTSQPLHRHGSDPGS

Structure (SMILES)	hERG current change (%, negative = inhibition) at 1uM [%]
CCN(CC)C(=O)N1CCN(C)CC1.O=C(O)CC(O)(CC(=O)O)C(=O)O	19.3
CCN(CC)S(=O)(=O)c1ccc2c(c1)nc(SC(C)C(N)=O)n2-c1ccc(OC)cc1 (centres unmarked)	-6.79
COc1cccc2c1OC1(C)CC2/C(=C(\C)O)C(=O)N1 (centres unmarked)	13
COc1ccc(OCC(=O)NCCCNC(=O)COc2ccc(OC)cc2)cc1	4.68
O=C(c1noc2c1CCc1ccccc1-2)N1CCCc2ccccc21	0.415
CCOC(=O)/C(=N\Nc1cc(Cl)ccc1Cl)N1CC(C)OC(C)C1 (centres unmarked)	16
Cc1ccc(C(=O)N2CCCC(Nc3cccc(F)c3)C2)cc1N1CCNC1=O (centres unmarked)	12.7
COc1ccc(CCC(=O)NC2CCCc3ccccc32)cc1OC (centres unmarked)	19.4
CCOC(=O)CCCCC(=O)c1[nH]c(=O)[nH]c1CSc1nnc2c3ccccc3n(C(C)C)c2n1	-0.434
Cc1c(Cl)cccc1-c1ccc(C(=O)N2CCN(c3ccc([N+](=O)[O-])cc3)CC2)o1	-1.98
CCOc1ccc(NS(=O)(=O)c2ccc(C(=O)NCc3ccncc3)cc2)cc1	13.7
COCCn1cnc2c1c(=O)n(CC(=O)Nc1cc(C)on1)c(=O)n2Cc1ccccc1	-13.9
COc1cc(NC(=O)CCCOc2ccc(Cl)cc2Cl)c(C(=O)O)cc1OC	6.69
CC(C)[C@H](NS(=O)(=O)c1ccc2c(c1)OCCO2)C(=O)OCC(=O)Nc1cc(Cl)ccc1Cl	12.7
c1cc(CNC2=NCCCCC2)ccn1	12
NS(=O)(=O)c1ccc(CCNC(=O)CNC(=O)Cc2ccccc2)cc1	12.6
CCCc1nc(SCc2ccccn2)c2c(=O)n(C)c(=O)n(C)c2n1	-14
CCC(C)NC(=O)CN(c1ccc(Cl)c(Cl)c1)S(C)(=O)=O (centres unmarked)	9.83
Cc1ccc2nc(NC(=O)CSc3nc(=O)n(CCCN(C)C)c4c3CCC4)sc2c1	-5.44
CCCCN(C(=O)c1cccc(C)c1)c1c(N)n(CCC)c(=O)[nH]c1=O	18.3
N/C(=N\OC(=O)CCCOc1ccccc1)c1ccccc1	6.08
O=C(Nc1ccccc1)N1CCN(C2c3ccccc3-c3ccccc32)CC1	9.82
O=C(Nc1c2c(nn1-c1ccc(Cl)cc1)CS(=O)(=O)C2)c1ccccc1	6.79

Structure (SMILES)	hERG current change (%, negative = inhibition) at 1uM [%]
COc1ccccc1N1CN(CCc2ccccc2)CNC1=S	13.4
COc1ccccc1/C=N/NC(=O)c1nnn(-c2nonc2N)c1-c1cccs1	13.8
Cc1ccc(-c2[nH][nH]c(=O)c(=O)c2N=Nc2ccccc2)cc1	9.66
CC(C)c1ccc(NC2CCCN(C(=O)CN3CCCC3=O)C2)cc1 (centres unmarked)	13.1
CN1C2C(Br)CCCCN2c2ccc(F)cc2S1(=O)=O (centres unmarked)	-0.635
CC(=O)N1N=C(c2cccc(Cl)c2)OC1c1ccc(C(C)C)cc1 (centres unmarked)	2.61
Cc1cccc(C(=O)Nc2ccccc2SCC(=O)Nc2ccc(C)c(Cl)c2)c1	20
NC(=O)N/N=C/c1cn(CC(=O)Nc2ccc(F)cc2)c2ccccc12	-1.64
COc1ccccc1OCCNC(=O)CN1C(=O)NC2(CCCCC2)C1=O	0.958
Cc1c(N=CN2CCOCC2)c(=O)n(C)c(=O)n1C	6.82
O=C(c1cc2c(s1)-c1ccccc1S(=O)(=O)C2)N1CCN(Cc2ccccc2)CC1	-3.27
Cc1ccc(NC(=O)CCC(=O)NNC(=O)C(C)(C)C)c(C)c1	-1.86
CCNS(=O)(=O)c1ccc(CCC(=O)N2CCN(c3ccccc3F)CC2)cc1	10.2
CCc1ccc(NC(=O)CSc2nnc(CNC(=O)c3c(F)cccc3Cl)o2)cc1	10.7
COc1ccc(CNC(=O)CCc2nc3cc(S(=O)(=O)N(C)C)ccc3n2C)cc1OC	8.18
CCCCNC(=O)CN1CCC2(O)CCCCC2C1c1ccccc1OC (centres unmarked)	1.55
O=C1N=C(N2CCCCC2)S/C1=C\c1ccc(Br)cc1	12.3
COc1cc2c(cc1OC)C(C)N(Cc1ccc3c(c1)OCO3)CC2 (centres unmarked)	9.84
O=C(O)CCC(=O)Nc1cccc(-c2nc3ccccc3o2)c1	12.9
COc1ccc2nc(C(C)O)[nH]c2c1 (centres unmarked)	7.65
COc1ccc(Br)cc1CNC(=O)Cn1nc(C)n2cccc2c1=O	5.14
O=C(Cn1nnc(-c2ccccc2)n1)Nc1ccc2c(c1)OCO2	7.38
CCCC(=O)N1CCC(Cc2ccccc2)CC1	12.1

Structure (SMILES)	hERG current change (%, negative = inhibition) at 1uM [%]
CCCCn1cnc2c1c(=O)n(CC(=O)c1cc(C)n(C)c1C)c(=O)n2CC(C)C	2.6
CCCn1c(-c2ccc[nH]c2=O)nc2cc(C)c(C)cc21	9.29
Cc1nc(C)c(C(=O)OC(C)C(=O)Nc2ccc(F)cc2)s1 (centres unmarked)	5.89
COc1cccc(NC(=O)COC(=O)/C=C/c2c(C)nn(-c3ccccc3)c2C)c1	-7.1
CCn1c(SCC(=O)Nc2ccc(OC)c(OC)c2)nc2c(c1=O)SCC2	9.56
O=c1cc(C(F)(F)F)c2cc3c4c(c2o1)CCCN4CCC3	0.791
O=C(Nc1ccccc1)C(=O)c1c[nH]c2ccccc12	7.16
COCCNC(=O)COc1coc(CN2CCN(Cc3ccccc3)CC2)cc1=O	13.9
Cc1cccc2nc3ccccc3nc12	14.2
Cc1nnc(Nc2ccc(Cl)cc2)n(N)c1=O	11
O=C(O)c1ccccc1C(=O)Nc1ccc(S(=O)(=O)NC2CCCCC2)cc1	8.33
COc1ccc(N(CC(=O)NC2CCCCC2)C(=O)CNC(=O)c2ccco2)cc1OC	-3.24
Cc1ccc(Nc2nnc(SCc3ccccc3)s2)cc1	10.6
O=C(CN1CCN(c2ncc(C(F)(F)F)cc2Cl)CC1)N1CCN(c2ncc(C(F)(F)F)cc2Cl)CC1	10.3
COc1ccc(N2C(=O)C3C4C=CC(C4)C3C2=O)c([N+](=O)[O-])c1 (centres unmarked)	-2.71
CC1CCN(C(=O)c2nc[nH]c2C(=O)O[C@H](C)c2ccccc2)CC1	15.2
CC(C)CC(c1nnnn1C1CCCC1)N1CCN(c2ccccc2F)CC1.Cl (centres unmarked)	4.47
Cc1nc2ccc(NC(=O)Cc3c(F)cccc3Cl)cc2s1	7.62
O=C(Nc1ccccc1)OC1CN=C(N[N+](=O)[O-])NC1 (centres unmarked)	-5.37
Oc1ccccc1C=Nc1ccccc1-c1nc2ccccc2[nH]1	1.95
COc1cccc(C(=O)Nc2cccc(-c3nnc(-c4ccccc4)o3)c2)c1	0.307
CCCCCCCC(=O)NC(Oc1ccccc1[N+](=O)[O-])C(Cl)(Cl)Cl (centres unmarked)	10.9
O=C(NC1(C(F)(F)F)C(=O)Nc2c1c(=O)[nH]c(=O)n2Cc1ccccc1)c1ccc(Cl)cc1 (centres unmarked)	7.34

Structure (SMILES)	hERG current change (%, negative = inhibition) at 1uM [%]
COC(=O)c1c(CCl)noc1C(=O)NC(C)C	11.3
CC(C)CC(=O)N1CCN(Cc2cccc(F)c2)CC1	4.4
O=C(Cn1ncc2c3ccccc3n(Cc3ccccc3)c2c1=O)NCCCN1CCCC1=O	-7.41
O=C(CCN1C(=O)C2C3C=CC(C3)C2C1=O)N1CCN(c2ccc([N+](=O)[O-])cc2)CC1 (centres unmarked)	-49.5
COc1ccc(-c2csc(-n3ncc(C(=O)O)c3C(F)(F)F)n2)cc1	14.9
Cc1cccc(OCCC(=O)Nc2ccc(F)c(Cl)c2)c1	14.3
CC(C)(C)OC(=O)N1CCC(Cc2cc(-c3ccccc3)no2)(C(=O)O)CC1	8
CCc1cc2cc3c(cc2nc1SCC(=O)Nc1nccs1)OCO3	1.41
O=C1OC(Cc2ccncc2)C(O)=C1C1=NCCCN1 (centres unmarked)	11.6
CN(c1ccccc1)S(=O)(=O)c1ccc(C(=O)NCC2CCCO2)cc1 (centres unmarked)	4.38
CCc1nc(NCc2cccnc2)c2oc3ccccc3c2n1.Cl	8.44
CSc1nc(N)c(NC(=O)c2ccc(Br)o2)c(=O)[nH]1	23.2
COc1cc(/C=N/NC(=O)c2cccc(C)c2)ccc1OCC(=O)Nc1ccccc1	10.9
c1ccc(CCNc2ncnc3nc[nH]c23)cc1	11
Cc1ccccc1CSCC(Nc1ccc(C(=O)O)cc1[N+](=O)[O-])C(=O)O (centres unmarked)	7.82
O=C1c2cnccc2CN1Cc1ccccc1	7.4
CCNc1nc(Oc2ccc(=O)n(-c3ccccc3)n2)nc(N(C)C)n1	10.7
O=C(N/N=C/c1ccc(OCc2cnc(Cl)s2)cc1)c1ccncc1	7.26
CC1CC(C)CN(C(=O)CCNC(=O)Cn2ccc3ccccc3c2=O)C1 (centres unmarked)	11
Cc1ccc(CN(C(=O)c2ccco2)C(C(=O)NC2CCCC2)c2ccc(N3CCOCC3)cc2)cc1 (centres unmarked)	-3.43

— paper PMC4336329 (PLoS ONE, 2015)
